According to the supplement of paper PMC3334620:
Over roughly 33,000 sequences, “E-score (-0.5 to 0.5)” has its median near -0.016; the highest 2% begin near 0.31. Some of the results follow.

Target: Cst6 (UniProt P40535)
Assay: PBM E-score (8-mer binding enrichment) (E-score (-0.5 to 0.5)); higher = stronger / more preferred TF binding; most listed sequences are background and not binding sites
Conditions: protein concentration: 200 nM; construct: GST-DNA-binding domain
Method: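 Universal 'all 10-mer' protein binding microarrays (Agilent AMADID 015681) probed with GST-tagged S. cerevisiae TFs (full-length or DBD) made by in vitro transcription/translation (PURExpress), about 100-200 nM. Bound TF was detected with fluorescent anti-GST. Each ungapped 8-mer (which stands for itself and its reverse complement) is scored by the PBM enrichment score (E-score), a modified Wilcoxon-Mann-Whitney statistic from -0.5 to +0.5, computed with the Universal PBM Analysis Suite. Scale: above 0.35 generally sequence-specific binding.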

| Sequence | PBM E-score |
| --- | --- |
| AGGTTCAG | -0.0185 |
| CTTCCTCC | -0.235 |
| CTTAAAAA | 0.177 |
| AAGTCACC | 0.188 |
| CTAAGCTA | 0.0543 |
| AGTCGGGC | -0.202 |
| ACTGCTCC | -0.199 |
| GGAGCTGA | -0.207 |
| CCTCCGAG | -0.31 |
| TGCAAGAA | 0.141 |
| GAATGGAA | 0.0883 |
| GGATCGGA | -0.114 |
| AAGGGTAA | -0.154 |
| GATGGTCA | -0.00406 |
| AAATCAGG | 0.0578 |
| CCAGAGGA | -0.166 |
| CCGAACGC | 0.162 |
| ACACGAGG | -0.0185 |
| CGAAATCG | 0.0477 |
| CTTAGATC | -0.0573 |
| CTGAACAA | 0.138 |
| AAACACTC | 0.0497 |
| AGGATCTC | -0.182 |
| CTGCACAA | -0.0605 |

| Sequence | PBM E-score |
| --- | --- |
| CAACCGAC | 0.0629 |
| AGCACACA | -0.16 |
| ATGGGTGC | -0.135 |
| CTTCGTGA | 0.0569 |
| AGGAGTCC | -0.234 |
| ATCATCCG | 0.0385 |
| TCGGCACA | -0.0165 |
| GACGGCCC | -0.163 |
| ACCCGGCT | -0.204 |
| CCGAGTTA | 0.00264 |
| TCTGCACA | -0.0745 |
| GACTGTTA | 0.0425 |
| CTGTTCCA | -0.0344 |
| AAGCAGGC | -0.24 |
| ATTGACTA | -0.0205 |
| CCAGGGAG | -0.35 |
| CTCTTGGA | -0.134 |
| GAAATCTC | -0.00885 |
| GGCCGTCA | 0.0436 |
| AGAAGGGG | -0.222 |
| CATCCTTA | 0.00972 |
| CCTGCGCG | -0.0722 |
| CCGCCTCA | -0.129 |
| ACATTCAC | 0.0696 |

| Sequence | PBM E-score |
| --- | --- |
| ACGTTAAC | 0.207 |
| CGAAGATA | 0.154 |
| ATTTGATG | 0.13 |
| ACGCTCTG | -0.215 |
| CCACCATA | -0.034 |
| GTCTCCCA | -0.244 |
| ATCACCAC | 0.244 |
| ATAAGGGC | 0.0296 |
| ACTTAGCG | 0.107 |
| AGGCAAAC | 0.042 |
| GTCGAACA | 0.0815 |
| ACTTTGAA | 0.0348 |
| CAGTAGTC | -0.195 |
| CACCGCTC | -0.00806 |
| ATGATATG | 0.269 |
| GTGCACGA | -0.0324 |
| GGAGTGAC | 0.225 |
| CAGAGAGG | -0.396 |
| CCTTCTCG | -0.264 |
| GCAAGGAC | -0.214 |
| GCACCTGA | -0.0138 |
| AAGACAAC | 0.195 |
| GCGGAAAA | 0.17 |
| AAGTCTAG | -0.297 |

| Sequence | PBM E-score |
| --- | --- |
| ACCATGAC | 0.395 |
| ACACAGTA | -0.0321 |
| ATTTGACC | 0.0657 |
| ACCCTGAT | -0.133 |
| AACGATGG | -0.0234 |
| ACAGAACT | 0.067 |
| AATCTAAA | 0.0998 |
| CTGATATC | 0.174 |
| AGATGAGA | 0.00259 |
| CTCTCAGA | -0.0636 |
| ACTCGTGG | -0.0561 |
| CAGATAAC | 0.057 |
| ACCGTTAG | 0.059 |
| AGCCAATG | -0.174 |
| AATATGAC | 0.35 |
| CCTATTAA | -0.0552 |
| ACCGGTAA | 0.0331 |
| GTGTCGTA | 0.2 |
| GAGGAGGA | -0.288 |
| CCCTGCCG | -0.3 |
| AATTATTG | 0.252 |
| AAAGAGTT | -0.00381 |
